From publication PMC12040169 (PLOS Biology, 2025)
Some of the results follow.

tested on: T1, C. trachomatis L2/434/Bu expressing GFP (CTL2-GFP); parameters: species or system HeLa; C. trachomatis total inclusion area by high-content imaging, normalised to DMSO; details: total inclusion area; 28.5 h, 10 µM; inhibitor
T1 construct: L2/434/Bu GFP intracellular growth in HeLa cells
In short: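 Post-fluorescence-read fixation, DNA staining with Hoechst and high-content imaging; GFP inclusion area and number per well, and nuclei counts, used as proxies for bacterial growth and host viability.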

| SMILES | % of control remaining |
| --- | --- |
| O=C(CNC(=O)C1CCCCC1)NNC(=O)c1sc2ccccc2c1Cl [CBK267903] | 114.864 |
| CCc1ccc(OCC(=O)Nc2cccnc2)cc1 [CBK264658] | 114.216 |
| Cn1c(=O)n(C)c2cc(S(=O)(=O)ON3C(=O)c4cccc5cc([N+](=O)[O-])cc(c45)C3=O)ccc21 [CBK267566] | 101.416 |
| COc1cccc2c1OC(c1cccnc1)N1N=C(c3cccc(O)c3)CC21 (stereo not drawn) [CBK287747] | 78.2501 |
| Cc1ccc2nc(Cl)c(/C=N/NC(=O)CN3CCOCC3)cc2c1 [CBK262731] | 73.8354 |
| Cc1nc(CNC(=O)NC2CCCN(c3ccn(C)n3)C2=O)c(C)s1 (stereo not drawn) [CBK305926] | 53.4391 |
| Cc1ccc(CNC(=O)Cn2nnc(-c3ccc(CN4CCC(S(C)(=O)=O)C4)cc3)n2)cc1 (stereo not drawn) [CBK155407T] | 83.6275 |
| O=C(O)c1ccc(C2(c3ccc(C(=O)O)cc3)OC(=O)c3ccccc32)cc1 [CBK261150] | 89.1321 |
| Cn1cnnc1Sc1cc(N2CCN(S(=O)(=O)c3ccc(Cl)c(Cl)c3)CC2)ccc1[N+](=O)[O-] [CBK266618] | 103.211 |
| O=C1N(Cc2ccc(Br)cc2)CCc2cncn21 [CBK021187] | 94.454 |
| N#Cc1c(Cl)cccc1Oc1ccc(S(=O)(=O)Nc2cccc(C(=O)O)c2)cc1 [CBK155718] | 94.0721 |
| O=C(Cn1ccc2ccnc(-c3cccs3)c21)NCc1ccccn1 [CBK284735] | 106.051 |
| O=C(Nc1cncc(N2CCNCC2)n1)c1coc2c1C(=O)CCC2 [CBK004229T] | 97.629 |
| CN(Cc1ccccc1)C(=O)CCNS(=O)(=O)c1ccccc1 [CBK268585] | 100.402 |
| Cc1ccc(C(=O)N2CCN(CC(=O)N3CCCC3)CC2)cc1 [CBK039096] | 39.0128 |
| Cc1nc2ccccc2c(O)c1CN1CCN(C)CC1 [CBK027922] | 66.3986 |
| O=C(COc1ccc(S(=O)(=O)N2CCCCC2)cc1)N1CCN(Cc2ccccc2)CC1 [CBK269144] | 106.798 |
| c1cncc(-c2cncc(NCc3ccc4c(c3)OCO4)n2)c1 [CBK065313] | 118.253 |
| Cc1nn2c(O)c(CCO)c(C(=O)O)nc2c1-c1ccc(Cl)cc1 [CBK286699] | 98.2568 |
| CNc1nc2ccccc2n1CC(=O)c1ccccc1 [CBK262251B] | 78.0469 |

| SMILES | % of control remaining |
| --- | --- |
| CN(Cc1ccc(F)cc1F)C(=O)Cn1nc2n(c1=O)CCCCC2 [CBK304598] | 50.245 |
| O=C(Nc1ccccc1N1CCNCC1)C1(c2ccccc2)CCCCC1 [CBK028281T] | 68.6924 |
| CCOc1ccc(C(=O)Nc2ccc(S(=O)(=O)N3CCN(C)CC3)cc2)cc1 [CBK269959] | 82.2834 |
| O=C1CCCN1C(=O)CN1CCOCC1 [CBK261467] | 84.1168 |
| OC(CN1CCC(O)(Cn2cnc3ccccc32)CC1)c1ccc(-c2ccccc2)cc1 (stereo not drawn) [CBK286437] | 54.812 |
| O=C(Nc1ccccc1C(F)(F)F)c1ccc(-n2cnnn2)cc1 [CBK300521] | 85.4991 |
| O=C(CNC(=O)OCc1ccncc1)NCC(CCCN1CCC(c2ccccc2)CC1)(c1ccccc1)c1ccccc1 [CBK024060A] | 70.8738 |
| Cc1ccc(S(=O)(=O)Nc2ccccn2)c(C)c1C [CBK264995] | 116.165 |
| N=c1c2c(-c3ccccc3)c(-c3ccccc3)oc2ncn1CCCN1CCOCC1 [CBK268484] | 102.619 |
| Cc1nc2c(OCCN3C(=O)c4ccccc4C3=O)cccn2c1N(C)C(=O)C1CCCCC1 [CBK147157] | 59.2432 |
| CS(=O)(=O)N1CC2(CCN(CCOCc3ccccc3)CC2)c2ccccc21 [CBK115458T] | 102.827 |
| O=C(c1c[nH]c2ccccc12)C(F)(F)C(F)(F)F [CBK007222] | 101.767 |
| O=C(CCS(=O)(=O)c1ccccc1)Nc1ccc(N2CCNCC2)c2ccccc12 [CBK028408T] | 88.4811 |
| CC(C)N(Cc1nc(-c2ccccc2)no1)C(=O)CCc1ccccc1 [CBK269867] | 88.0808 |
| Cc1cc(C(=O)N2CC[C@H]3NC(=O)c4ccccc4OCCCCC[C@H]3C2)no1 [CBK292005] | 84.4089 |
| Cc1noc(C)c1CC(=O)NCc1cccc(C#N)c1 [CBK305822] | 52.8738 |
| COc1cccc(C(=O)c2snc(Nc3ccc(F)cc3)c2N)c1 [CBK269173] | 78.5729 |
| Cn1nc(C2CCN(C(=O)c3cccs3)CC2)c2cccnc21 [CBK284925] | 95.6862 |
| Cc1cc(C)c(NC(=O)CSc2nc(C)c(Cc3ccccc3Cl)c(O)n2)c([N+](=O)[O-])c1 [CBK268693] | 116.761 |
